Measurements as given in PubChem BioAssay AID686970 (National Center for Advancing Translational Sciences (NCATS), 2013).
The whole screen tested about 360,000 compounds, of which about 6,000 (1.7%) were called active. Inconclusive results, whose numbers are uncertain, are shown with a selection of clear calls. Calls come from the whole dose curve; as a rule, active = well fitted cell-killing curve with a large enough effect; inconclusive = small, poorly fitted or top-dose-only effect, or effect the other way; inactive = flat fitted curve, though single readings scatter. No potency is given beside an inconclusive call; the fits are too rough.

Test: qHTS for induction of synthetic lethality in tumor cells producing 2HG: qHTS for the HT-1080-NT fibrosarcoma cell line;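 note: NT is the 2HG producing partner of a matched IDH1 knockdown line; nearly all actives have a fitted effect of over 55% in size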;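 for activity, negative = less viability: 0% = DMSO-treated cells and -100% = media-only wells without cells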
Conditions: HT-1080-NT fibrosarcoma viability, CellTiter-Glo ATP luminescence, 48 h; activity, negative = less viability: at 46.1 µM (top of the series) unless noted
In short: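 Fibrosarcoma NT cells, 750 per well in 5% FBS RPMI, were exposed to compound for 48 hours. Viability: CellTiter-Glo luminescence.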
Potency is the fitted concentration of half-maximal effect; tags give direction and shape of the fitted curve.

Compound	Potency	activity, negative = less viability
CCOc1ccc(NC(=O)Nc2cc(C)ccc2F)cc1	inconclusive [cytotoxic, single point]	
Cc1nc2ccc(NS(=O)(=O)c3c(F)cccc3F)cc2s1	inconclusive [cytotoxic, single point]	
Cc1cccc(S(=O)(=O)NC(=O)C2(C)CCN2C(=O)c2ccccc2CCc2ccccc2)c1 (stereo not given)		inconclusive: 3.31%
CC(C)(C)c1ccc(C(=O)N2CCN(CCNC(=O)C(=O)NCc3ccc(Cl)cc3)CC2)cc1	inconclusive [cytotoxic, single point]	
COc1cc(OC)c2c(-c3cccc(-c4cccc(N)c4)c3)cc(=O)oc2c1	active: 6.51 µM	
COc1ccc2sc(N(CCCN(C)C)C(=O)c3ccc(C(=O)c4ccccc4)cc3)nc2c1	inconclusive [cytotoxic, single point]	
N/C(=N\OC(=O)c1cccc(Cl)c1)c1ccccn1	inconclusive [cytotoxic, single point]	
Cc1ccc(C(=O)NCC(=O)OCC(=O)Nc2ccccc2C#N)s1	inactive	
CC(=O)c1ccc(N2CCN(S(=O)(=O)c3cc4c(cc3C)NC(=O)CO4)CC2)cc1	inconclusive [cytotoxic, single point]	
COc1ccccc1CNC(=O)c1ccc2nc3[nH]c4ccccc4c3nc2c1	inconclusive [cytotoxic, single point]	
O=C(CN1CCN(Cc2cccc(F)c2)CC1)Nc1ccccc1F	inactive	
CC(=O)NCCC(=O)Nc1cccc(S(=O)(=O)N(C)c2ccccc2)c1	inactive	
CC(C)(C)S(=O)N1Cc2cc(C(=O)NCCCN3CCOCC3)nc(-c3cccc(-c4cc5ccccc5o4)c3)c2[C@H]1CCO (stereo not given in full)	inconclusive [cytotoxic, single point]	
Cn1cc([N+](=O)[O-])c(C(=O)Nc2cc(Oc3cccnc3)cc([N+](=O)[O-])c2)n1	active: 20.6 µM	
CC1CCCCN1CCCNC(=O)c1nn(C)c2c1CSc1ccccc1-2 (stereo not given)	inconclusive [cytotoxic, single point]	
Cc1ccc(OCC(=O)N/N=C/c2ccccc2)c([N+](=O)[O-])c1	inactive	
CN(C)CCN=Cc1c(O)n(Cc2ccccc2)c(=O)c2ccccc12	inactive	
C#CCOCCOCCOCCNc1nc(N2CCN(C(=O)Cn3cc(CCCN=C(N)N)nn3)CC2)nc(N2CCN(C(=O)Cn3cc(CC(C)O)nn3)CC2)n1 (stereo not given)	inconclusive [rising, single point]	
CC(C)(C)c1ccc2c(c1)OC(C(=O)N/N=C\c1ccc[nH]1)CO2 (stereo not given)	inconclusive [cytotoxic, partial curve]	
O=C(Nc1ccon1)c1ccc(Br)o1		inconclusive: 30.9%
CC1CCN(CCCNC(=O)c2cc3c(Cl)nc4ccccc4c3s2)CC1	inconclusive [cytotoxic, single point]	
CN(C)c1cccc(C(=O)OCC(=O)NC2CCCC2)c1	inactive	
CC(=O)OCC1(C)CN(c2ccccc2)N(C(C)=O)C1=O (stereo not given)	active: 20.6 µM	
CCN(CC(=O)Nc1ccc(NC(C)=O)cc1)C(=O)c1ccc(C(=O)c2ccccc2)cc1	inactive	
COCCN(C(=O)CSc1cc(C)c2ccccc2n1)c1c(N)n(CC(C)C)c(=O)[nH]c1=O	inactive	

Compound	Potency	activity, negative = less viability
CCOC(=O)N1CCN(C(=O)C[C@@H]2C[C@@]3(C(=O)OCC)CCC=C3N(Cc3ccccc3)C2=O)CC1	inactive	
CCCCc1c(O)nc(SCC(=O)c2ccccc2)n(-c2ccccc2OC)c1=O	inactive	
COc1ccc(O)c(-c2c(-c3ccc(Cl)cc3)n[nH]c2C)c1	inactive	
O=C(Nc1cccc(O)c1)c1cccc(S(=O)(=O)N2CCCCCC2)c1	inconclusive [cytotoxic, partial curve]	
c1ccc(Cn2c(-c3ccco3)nc3nc4ccccc4nc32)cc1	inconclusive [cytotoxic, single point]	
Cc1cc(CSc2ccccc2)ccc1NC(=O)c1ccc(C)c([N+](=O)[O-])c1	inactive	
Cc1ccc(-c2cc(-c3ccc(F)cc3)n[nH]2)c(O)c1	active: 25.9 µM	
COc1ccc(CCNC(=O)COC(=O)Cn2cnc3ccccc32)cc1OC	inactive	
CC(=O)Nc1ccc(CN(C)CC2CCCN(CCc3cccc(C(F)(F)F)c3)C2)cc1 (stereo not given)	inconclusive [cytotoxic, partial curve]	
O=C(Cc1cccc2ccccc12)NNC(=O)Nc1ccc(Cl)cc1	inconclusive [cytotoxic, partial curve]	
CCOC(=O)c1cc2c(=O)n3cccc(C)c3nc2n(CC(C)C)c1=NC(=O)c1ccco1	inactive	
Oc1ccccc1-c1cc(-c2ccc(F)cc2)n[nH]1	inconclusive [cytotoxic, full curve, poor fit]	
Cc1ccccc1Cn1ccc(NC(=O)c2onc(C)c2Cl)n1	inconclusive [cytotoxic, partial curve]	
Cc1nc(C(=O)NCCCO)cc2c1[nH]c1ccccc12	inactive	
COc1ccc(NC(=O)/C=C/c2cccc(C(F)(F)F)c2)cn1	inconclusive [cytotoxic, single point]	
COc1ccc(C(C)(NC(C)=O)c2nc(/C=C/c3ccccc3)cs2)cc1 (stereo not given)		inconclusive: -30.9% [cytotoxic]
Cc1ccc(-c2nc3cc(C)ccc3o2)cc1	inactive	
O=c1c2ccccc2c(-c2n[nH]c(=S)o2)nn1Cc1ccccc1	inactive	
CCN(Cc1cnn(C)c1)C(=O)c1cc(COc2cc(C)c(Cl)c(C)c2)on1	inconclusive [cytotoxic, single point]	
O=C(O)C1CCC2CCCC21 (stereo not given)	inconclusive [rising, single point]	
CC[n+]1ccccc1/C=C1\Sc2ccc(C)cc2N1C	active: 23.1 µM	
CCOc1ccc2c(c1)C(C)=CC(C)(C)N2S(=O)(=O)c1ccc(C)cc1	active: 1.3 µM	
CN(C)C1C(=O)c2ccccc2C1=O		inconclusive: 31.6%
O=C(NCCc1cccc(Cl)c1)c1ccc(Cl)c([N+](=O)[O-])c1	inconclusive [cytotoxic, single point]	
CCN1CCN(CCCNC(=O)C2CCCN(c3nc4c(C)cc(C)cc4s3)C2)CC1 (stereo not given)	inconclusive [cytotoxic, single point]	

Compound	Potency	activity, negative = less viability
CC(=O)Nc1cccc(Oc2ncnc3scc(-c4ccc(C(C)C)cc4)c23)c1	inconclusive [cytotoxic, partial curve]	
O=C(NCc1ccc(F)cc1)c1ccc(S(=O)(=O)Nc2cccc(C(F)(F)F)c2)cc1	inactive	
Cc1noc(C)c1COc1ccc(C(=O)N2CC(C)CC(C)C2)cc1 (stereo not given)	inactive	
CC(C)(C)c1ccc(OCC(=O)Nc2ccc3c4c(cccc24)C(=O)NC3=O)cc1	inconclusive [cytotoxic, single point]	
N#CC1c2ccccc2-c2ccccc2N1C(=O)c1ccccc1 (stereo not given)	inconclusive [cytotoxic, single point]	
CC(C)NC(=O)NC(=O)CSc1nnc(COc2ccccc2F)n1C(C)C1CC2CCC1C2 (stereo not given)	inconclusive [cytotoxic, single point]	
CN(C)N1C(N)=C(C#N)C(c2cccnc2)C2=C1CCCC2=O (stereo not given)	inactive	
Cc1ccc2nc(C)c(C(=O)N/N=C/c3ccc(N4CCOCC4)cc3)cc2c1		inconclusive: -61.6%
CC(=O)c1c(O)cc(O)c(C(C)=O)c1O	active: 13 µM	
CCCC(=O)NC(c1ccccc1Cl)c1ccc2cccnc2c1O (stereo not given)		inconclusive: -22.1% [cytotoxic]
Cc1ccc2nc(C3CCCCC3)c(Cc3cccc(Cl)c3)n2c1	inconclusive [cytotoxic, single point]	
Cn1nc(C(C)(C)C)cc1C(=O)NNC(=O)c1cccc(Cl)c1	inconclusive [cytotoxic, single point]	
COc1ccccc1N1CCN(CCCCOc2cccc3ccccc23)CC1	inconclusive [cytotoxic, single point]	
Clc1cc(/C=N\NC2=NCCN2)cc(Cl)n1	inactive	
CCn1cc(C(=O)NCCc2ccccc2)c(=O)c2cc(F)c(N3CCN(C)CC3)cc21	inconclusive [cytotoxic, partial curve]	
O=C(Nc1nc2ccccc2[nH]1)C1CCN(C(=O)c2ccc(F)cc2)CC1	inactive	
COc1cc2[nH]c(=O)n(CCCCCC(=O)N3CCN(c4ccccc4)CC3)c(=O)c2cc1OC	inactive	
OC(C1=CC(=Cc2ccncc2)c2ccccc21)c1ccncc1 (stereo not given)	active: 3.26 µM	
C[C@H](CO)N1C[C@H](C)[C@@H](CN(C)Cc2ccc(Cl)c(Cl)c2)Oc2c(NS(=O)(=O)c3ccc(F)cc3)cccc2C1=O	inconclusive [cytotoxic, single point]	
COc1ccc(N(C)S(=O)(=O)c2cccc3cccnc23)c(OC)c1	active: 11.2 µM	
CCn1c(=O)n(CC)c2cc(S(=O)(=O)N3CCc4ccccc43)ccc21	active: 10 µM	
O=C1CCc2cc(S(=O)(=O)N3CCN(c4ccc(F)cc4)CC3)cc3c2N1CC3	inactive	
COCCn1c(=O)sc2ccccc2c1=O	inconclusive [rising, partial curve]	
CCCCCCCCNC(C)C(O)c1ccc(SC(C)C)cc1 (stereo not given)	active: 23.1 µM	
CCc1nc2ccc(C(=O)N(C)C(C)C)cn2c1N(CCC(C)C)CCN(C)C	inactive	
